The supplement of paper PMC12632987
The full ranking holds about 2,300 sequences; the median of “median log2 fold change of GCK-ALFA target abundance (FLAG IP / Myc IP barcode read proportion)” is about 0.095, and the lowest 2% start at about -0.47. The list shows a part of the results.

B1: LC3A_3_1852 (protein)
chain: MDEIIEEILELLKSLGRSEETIEAALRLAEALKERGYEEALKTFLEELKELKDLPDEILLAMFEDILAEVETKDLSEEETIELIKREARTARNEAEIEEL
B2: LC3A_17_582 (protein)
chain: KEEIREELEELLRELKELLKKAKEYGLPKAPEIEKLLEEAERALEEGNLLEAAKLLEEAADLLADAFEEKEEELGSEASLYEMEANGIELRAIGIILKLE
B3: LC3A_3_1587 (protein)
chain: LEEKEKEMIEALKKAGHSEETIEAVKELLELLKEKGYEKAAEEFIELVLENIDLSSELLLDVAEEMKALVEAGELSEEELIEKARELFRVARSEQEIIEL
B4: LC3A_147_456 (protein)
chain: MKYVISVDVLFKNDPELVEEVEKKLREIAEKYGGEVKVERQEIQESPTTTEYYLRVDITFEDEEKAKAAEQEVSKLLEETAKKYPDKFLGSMISFDKEEE
B5: LC3A_free_8_2537 (protein)
chain: MIEKLRKEASEILDKAEEEVEKKAKELGIDPLDVNELLLLLGEAIIEIHEIETESIEDVKKDVTESLDKAIELAKKLSPEIAKIVEEAKKKVLELLEKME
B6: LC3A_45_1952 (protein)
chain: MYVAEVDVLVPAAEFDKAVAVLKEKAKELEKEKGLKVEIDEKALAEARKEAEAEGEALVTVTVYSEDKDEALDAAVEIEDALEEAMSPSVASIISIKEEP
B7: LC3A_28_1030 (protein)
chain: AALKAAAAAALAEARAQFEAGEEAVVTLDVGDVPTAEAKAVVTAFLAELRALSAEYGGRKVSVVINYDGDQATLDAIIDAAEAAEAEDPNLTVIIAYADN
B8: LC3A_28_751 (protein)
chain: MNIEDDVEAAIKEAKEAKAKGEEKVIELTVPNGATQEDVDKLIKGLEEIAEIAKDMKAVSIVINVDSGVSQENLDKLMDKGEELEKKYPNITVIFALDEE
B9: LC3A_141_386 (protein)
chain: MKKEFEFTATEEEAQEVFDFFDEVEKELLEMIEESGGKPVKVKVTIKATNDETGEVVEKEEEFTVTKENVSEVMEGLAIEVLSLLDKVKGTVEVKIEAEV
B10: LC3A_147_503 (protein)
chain: YLLKVDIDIIVKNAEEEVKKMVEEIEEELKKKGFEVKVKINIEQLDENTTYISINIEVKAKTKEEAEEAANYIIDKFDKYLEENKDKILGALISVEIEKE
B11: LC3A_28_866 (protein)
chain: MTIEEIVAAARAQAEADAARGEPIVLTVEVTSSMSLEEAIELMERVLAIAREFVERTGLPVHIVVDHDGDQEKLDALLDLADEAEAADPRITVYIALSEE
B12: LC3A_28_1239 (protein)
chain: SAVEAQIAAARAEVEAAVAAGEEALVTLTVTGSDTQEDIDKIIAAMEEIAELAATLPALSIVIDVGKDVPQEHIDKLADAAEEIEERYPNVTVIIALEER
B13: LC3A_free_46_2329 (protein)
chain: VKLEISIDLLHEDEEKMKEAVEEIKKEIEKIAKEYNAKVEIKVEISKDEDGSYFAKIDITVEAETKEKAQEIKTKIIDKIEEIAEKYDISMIISYEIIEE
B14: LC3A_28_1136 (protein)
chain: SSIVERAKAQIEEDAEKDKDSPEVLLNVTITGSITVEEAKEIMDYVEEVVEKLKDKEKIFVLVTAEEPISQEVLDTILERGDELEKKFPNVDVIVALPED
B15: LC3A_45_1997 (protein)
chain: MAEVTVDVYGKGEDVIAFLKKVKERIEKLVKEKGLNLKVDEEALKKELERAKKEEEVVAELKIYSEATQEAIDAILDAIDEAQEEVGDSVSYIISIEELP
B16: LC3A_28_798 (protein)
chain: SEVRENVEKALEEARKQIEAGEEVFIEIKIPKDATKEEIEYVAEAIEEIAREAKKAGIKSVNVVVDNENNEEAVTILDETEDRLRKEGLPINIVIALEEP
B17: LC3A_78_2091 (protein)
chain: MVTIVAYATEETKPEAERIAAKDKQSEEVKVIPLEDLEKELEKYKDAEEIDVIVVAPTLEEVEEAIEKVKELFKDKKVSSIIEIDEETGFYTGHILVTKK
B18: LC3A_3_1474 (protein)
chain: LEERLKEVLEKLKEAGASEEVLEAVKKAAEYLKSLGHEEALKTFIEEVEELVGLPSELLLWFAEEVLEAAEKYKDDEEKLIKEIESIARATKSEAEIEEL
B19: LC3A_147_487 (protein)
chain: AEVSVDIIVKSEEAAEKIIEKVKEIVEELKKKGINVELKIEVEELEEGVYYVKITIKINAETQEEAKKAANEVVQKLDEIIEELKDEVLASLISIEETER
B20: LC3A_3_1409 (protein)
chain: MEERIEETLEELRAAGHSEETLEAFRELMDLLLARGAEEEAEEAIELVREAKDISSELLLEVLNEVIEALTEEGISPEEALELLKELLRIARNEQEIIEL
B21: LC3A_3_1387 (protein)
chain: MEERIERLLELLKEAGHSEETIEAVRRALEALVEKGYEKAAEKFIELLEELKHLPDETILALAEEVLELIETSDLNEEELTKKIEELATVFRNESEIIEL
B22: LC3A_147_478 (protein)
chain: AEVDIDVLVKNEETAERLIEMVRELEEELREKGIKVEVEIEREQLDENTWYVHVRIRIEAETEEEERAAADEVVDRFEEFEEENKDEVLASMISVEFIKP
B23: LC3A_free_8_2466 (protein)
chain: SNQELVNALVEELDKLEEEVRKKAKELGLSELDILELELEIGSAIAEVISLVDKSPEEIIKAYKEEMEEIKKLAKELSPELAKVVKEAEEEALKEAKKLE
B24: LC3A_28_1270 (protein)
chain: SEIEKELEKAKAAALEAKAAGEPAVITITVPGGATQEDIEKVKKGLEEIAKILSSVPDQAIIIDVESGVKQEHIDKLADKAEEIEKKYPNVTVIIALDED
B25: LC3A_28_1247 (protein)
chain: SAIDEQLAAAKKEAEEAKAKGEEVLVTLTVTADATQEDIDKVIAAMKEIAELTKDLPSTSIIVDLEKGVKQENIDKLADAGEEIEKKYPNVTVILALEEE
B26: LC3A_127_222 (protein)
chain: MLEEIRELAEEAAKLARKAIEDPSLDKQEALKKIEKLLKEALKLAKEAGVPEEVIKDIEQALKIAEEAKKLTPEEQLEALKQLELLADGIAIELDSLILK
B27: LC3A_3_1900 (protein)
chain: LEEEIEATLALLAAAGASEETLAAFREVAERLLERGYEEALRTLIEEMRELVDLPSELLLDFLREVLEVIETEDLSEEELIERIREIARLTLNEGEIEEL
B28: LC3A_free_46_2422 (protein)
chain: MTLEITIDFIAETKETAEKVSEEIVKLIKELAEKLGVEVEIEVKIEKLEDGTYYVEIKATIKGVTKEQAEQIENELTEKVEEIFEKYPGILGSIISFELK
B29: LC3A_3_1642 (protein)
chain: MEEEIEETLRLLKEAGASEETLEAFRRLAELLKERGFEEALRTLIEEVRELADLPSELLLDFLEEVLYVVETEDLDEEELIERIREIARVTRSEAEIIEL

The binders below were run against MAP1LC3A, Q9H492 (assay: median log2 fold change of GCK-ALFA target abundance (FLAG IP / Myc IP barcode read proportion) (log2 ratio); each designed protein is fused to an ALFA-tag nanobody in HEK293 cells to bring the named protein to FLAG-tagged glucokinase (GCK); Myc marks an untargeted standard; higher = target protein stabilised (more abundant)). Conditions: target protein: 3xFLAG-MCP-GCK-ALFA reporter; HEK293 landing pad (RPLP).
Outline: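 An ALFA-nanobody-fused binder library was recombined into HEK293 landing-pad cells and induced with 2 μg mL^−1 doxycycline. Cells were transfected with a plasmid expressing a FLAG-tagged target and a Myc-tagged standard. After 48 h, lysates underwent anti-FLAG and anti-Myc immunoprecipitation, and circular RNA barcodes were reverse transcribed, amplified and sequenced. Target abundance is the per-binder median log2 ratio of FLAG to Myc barcode read proportions. Barcodes needed ≥10^−7 proportion in both replicates, binders ≥3 barcodes per replicate, and a 10^−6 pseudocount was added; the two replicates were pooled.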

| Binder | median log2 fold change |
| --- | --- |
| B1 | 0.234 |
| B2 | -0.158 |
| B3 | 0.23 |
| B4 | 0.165 |
| B5 | 0.329 |
| B6 | -0.00967 |
| B7 | -0.268 |
| B8 | -0.0515 |
| B9 | 0.221 |
| B10 | -0.665 |
| B11 | -0.238 |
| B12 | 0.0755 |
| B13 | 0.177 |
| B14 | -0.152 |
| B15 | -0.323 |
| B16 | -0.316 |
| B17 | 0.24 |
| B18 | 0.169 |
| B19 | -0.0201 |
| B20 | -0.31 |
| B21 | 0.261 |
| B22 | 0.14 |
| B23 | 0.157 |
| B24 | -0.0362 |
| B25 | 0.182 |
| B26 | 0.368 |
| B27 | 0.107 |
| B28 | -0.134 |
| B29 | 0.0777 |
